The RNAGym collection of RNA variant scans (doi:10.1093/nar/gkz1192)
The source gives no read counts; variants with many changes may rest on few reads.

B1: CPEB3 Ribozyme (parent)
chain: UAACAGGGGGCCACAGCAGAAGCGUUCACGUCGCAGCCCCUGUCAGAUUCUGGUGAAUCUGCGAAUUCUGCUGUAUAUCUC

Variants of: B1
Assay: self-cleavage, relative activity (ratio to wild type); higher = more cleavage; in vitro, sequencing
Summary of the method: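 Relative activity was defined as the cleaved/total read fraction for a variant divided by the same fraction for the unmutated ribozyme. CPEB3 self-cleaving ribozyme libraries were made by rounds of error-prone PCR, barcoded, and transcribed in vitro with T7 RNA polymerase for 5 hours at 37°C, and cleavage ran through transcription plus a 15 min DNase I step before EDTA. Illumina sequencing of template-switched reverse transcripts gave the reads, and DNA sequencing mapped the barcodes. Averages come from three batches, using variants with at least 5 reads.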

Variant | self-cleavage
A13G U31C U72A U80C | 0.52
A13G U66C U78C | 0.26
A13G U31C C38U A56U U74C | 0.32
A13U A18U U26A A65G U76C | 0.12
A13U A15U A65G | 0.29
A13G U51C G61A | 0.17
A13G U31C U41C U58C | 0.14
A13G U31C U41C C59U U60C | 0.19
A13U A18G A28G U60C | 0.1
A13U A18G U43A C71A | 0.16
A13U A20G A56G U60A U74A | 0.28
A13U A15G U25C A56G U60C U67A U72A | 0.05
A13G U25A G33C | 0.08
A13G U60A A64U C68G A75G U78C | 0.17
A13G U25A U26C A45G A56G | 0.08
A13G U31A C40U U43C | 0.2
A13G U31A U78C | 0.37
A13U A18G U43C U60C | 0.12
A13G U25C C32U U48C U72C | 0.39
A13G U25C U41C A56U | 0.06
A13U A18G U43C | 0.25
A13U A18U U31C G33A C59U | 0.07
A13U A18G U31C U51C | 0.16
A13G U31A U43C U49C A75G U80C | 0.33

Variant | self-cleavage
A13U A18G A20U C81A | 0.24
A13G G53C U54C U78A | 1.13
A13U A15U U54C | 0.85
A13G U43A U60C | 0.29
A13G U25C A47G U69A | 0.34
A13G U26C U31A C81U | 0.12
A13G U31A U49A U76C | 0.42
A13G U41A A56G U72C U74A | 0.49
A13G G63A A64G | 0.47
A13U A15G U51C | 0.75
A13U A18G A21U U51C U60G | 0.11
A13U A20G U54C U69C | 0.32
A13G U43C U66A | 0.13
A13G U25C A45G U78C | 0.08
A13U A20G U26C U41C U60C U69C | 0.26
A13U A18U G33A A47G U60C | 0.05
A13U A15G A18G U31A U58C C62A C81U | 0.13
A13U A15U U58G | 0.12
A13G U41C U43A U74A | 0.54
A13G U41A G55U U58C U74A | 0.24
A13U A18C U26C | 0.09
A13G U51C A65G U72A | 0.36
A13G U25C U72A | 0.04
A13G U43C U58A | 0.09

Variant | self-cleavage
A13U A15G U60C | 0.24
A13G U43A C62U A75G U80A | 0.12
A13G U58A C68G | 0.19
A13G U31C A64G U69G | 0.19
A13G U26G U69C | 0.07
A13G U26C U74C A75G | 0.38
A13G U51C A57G U67C U69C U80C | 0.31
A13G U41C U69C U76A U80A | 0.26
A13U A18U A47G U51A C62U U72C U80C | 0.26
A13G U25C A28C C37U G70C U78C | 0.08
A13U A20G A28U U31C A35U A56G | 0.06
A13U A18G A35G U60C | 0.54
A13U A15G C40G A45G U67C | 0.04
A13U A15G U43C A56G | 0.25
A13G U58C U60C U72A | 0.1
A13G U31A C40A | 0.28
A13U A18C U41A A45G | 0.3
A13U A18U U25C U58A | 0.12
A13U A18U C27G U43A U49C A57G | 0.05
A13G U25C A35U A47G | 0.26
A13G U41G A56G U67A U80A | 0.13
A13G U26C A75G | 0.36
A13G U25C U41C A45U | 0.36
A13U A18G G33A | 0.37

Variant | self-cleavage
A13G U41C A65U U69C U80A | 0.22
A13G U54C U76C | 1.07
A13G U49C A57U U78C | 0.82
A13G U43A A47G U54C A57G U78C C81U | 0.1
A13U A18G U31C U76C A77U | 0.25
A13G U58C C62G U80C | 0.14
A13U A18G U41C | 0.87
A13G U58C U69A | 0.13
A13G U51A A56U U67C | 0.28
A13G U31C U72C U74C | 0.59
A13G G53A U60A U69A U76C | 0.19
A13G G24C U25C G36A U67A | 0.08
A13G U31A A64G U66C U78G | 0.05
A13G U25A G73C U78C | 0.25
A13G U48C A77G | 0.3
A13G U26G U72A | 0.15
A13U A18G C34U U43C A45G G63U | 0.08
A13G U25A U43C U60C U69C U78C | 0.08
A13G U41C U66C | 0.28
A13G U54C C71U | 0.32
A13G U26A G33A U43C A57G C62U A64U | 0.09
A13U A18G G46U | 0.21
A13G G46U U60A A64G | 0.1
A13G U26C U58C U60C | 0.27

Variant | self-cleavage
A13G U26C U60A A65G U69A | 0.05
A13G U26C G33U A64G | 0.14
A13G U26C U49C A65U | 0.07
A13G U41A A45G | 0.25
A13U A18C G36A C37A A47G C71U U72A | 0.04
A13G G52C U78C U80C | 0.79
A13G U25C C50U G63A U67C C68G | 0.04
A13G U25C A47U U60C | 0.4
A13G U26A A28G A45C U49C C62U U72C | 0.02
A13G U54G A75G | 0.52
A13G U25C A45G A57G A64G U78G | 0.12
A13U A18G C68A | 0.25
A13G G46A U49C U60C A75U | 0.1
A13G U26C U72A U78C | 0.22
A13G U25C U67C | 0.36
A13G U54C U67C | 0.14
A13G U31C A35C U41C U78C | 0.28
A13G U41C U74A | 1.09
A13U A15G A20U U31G U54C U58C U67A | 0.14
A13U A20G A28U G52A C62A | 0.21
A13G U41A A65U | 0.17
A13U A15U A28G C62U U72C | 0.15
A13G U25C A28G U31A U74C | 0.07
A13U A18G U25C C29U U80A | 0.26

Variant | self-cleavage
A13U A18G C37G U48C A77U | 0.22
A13G U43A U51C U69A | 0.47
A13U A20C U72C | 0.38
A13G U41A G55U U58C | 0.16
A13G U69A G73A | 0.55
A13G U25C G33A A65G | 0.19
A13G U26C C32A G53A | 0.07
A13G U25C U26C C79U | 0.39
A13G G30A U41C A57G G70A | 0.09
A13U A18G U41C U58C | 0.75
A13G U31G U51A U72C | 0.54
A13U A18U U54G U72C U76C | 0.22
A13G U48C U58C U80A | 0.16
A13G U26A U76C | 0.61
A13G U26C C39U A65G | 0.15
A13G U25C U51G A56G | 0.17
A13U A20G G36U A45G | 0.21
A13G U25C C34U U43C A64U U76A | 0.08
A13U A18G A28C U43C U58A | 0.2
A13U A20G U60C A77U | 0.34
A13G U51C U74C | 0.81
A13G U51G U67A U69C | 0
A13U A18C A65G G73A | 0.16
A13U A20G C23U A28G U74C | 0.53

Variant | self-cleavage
A13G U41C U72A | 0.16
A13U A18G A56G U60A A64U | 0.26
A13U A20G A28G | 0.54
A13G U25C A28U C32U A35U | 0.41
A13G U54C C79A | 1.24
A13G U25C A35G U43C C50U U66C | 0
A13G U31C G46A | 0.24
A13U A20G U41C A45G C62G U67C | 0.14
A13G G46A U49C | 0.14
A13G U25A U72A C81U | 0.02
A13G G46C U60C U67G | 0.33
A13G U54A U60C U69A U72G | 0.13
A13G U26A G61A U67A | 0.18
A13G U48C U51C G63C | 0.35
A13G U26C C29A U69C U74A A77G | 0.03
A13G U43C U69C | 0.09
A13G U31C A35G U54C U66C | 1.04
A13G G33C U67C | 0.38
A13U A18G U43C A65G | 0.11
A13U A18U A20U U43C | 0.17
A13U A15U U48A U67C | 0.21
A13G U31C U54C U60A U72C U74C | 0.26
A13U A15G A21G | 0.48
